Data as given in the supplement of paper PMC8728848.
This is one part of the list.

Experiments:
Assay in all cases: glycan array binding signal (z-score within array); higher = stronger binding
Details in all cases: glycan notation: IUPAC condensed, linker removed
Gal(a1-3)Gal(b1-3)GlcNAc = biological target: Gal(a1-3)Gal(b1-3)GlcNAc
Procedure, shortened: (§1)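 The binding signal is a Z-score computed within each array and averaged over linkers. Arrays of the same protein sequence at different concentrations or buffers were also averaged together. Data originate from 3228 arrays in the Consortium for Functional Glycomics database, kept only where the protein sequence was available.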

[1] = biological target: Gal(a1-3)Gal(b1-3)GlcNAc(b1-2)Man
Procedure, shortened: as §1

[2] = biological target: Gal(a1-3)Gal(b1-3)GlcNAc(b1-2)Man(a1-3)[Gal(a1-3)Gal(b1-3)GlcNAc(b1-2)Man(a1-6)]Man(b1-4)GlcNAc(b1-4)GlcNAc
Procedure, shortened: as §1

[3] = biological target: Gal(a1-3)Gal(b1-3)GlcNAc(b1-3)GalNAc
Procedure, shortened: as §1

[4] = biological target: Gal(a1-3)Gal(b1-3)GlcNAc(b1-6)GalNAc
Procedure, shortened: as §1

[5] = biological target: Gal(a1-3)Gal(b1-3)[Fuc(a1-4)]GlcNAc(b1-2)Man(a1-3)[Gal(a1-3)Gal(b1-3)[Fuc(a1-4)]GlcNAc(b1-2)Man(a1-6)]Man(b1-4)GlcNAc(b1-4)GlcNAc
Procedure, shortened: as §1

Gal(a1-3)Gal(b1-4)Glc = biological target: Gal(a1-3)Gal(b1-4)Glc
Procedure, shortened: as §1

Gal(a1-3)Gal(b1-4)GlcNAc = biological target: Gal(a1-3)Gal(b1-4)GlcNAc
Procedure, shortened: as §1

[6] = biological target: Gal(a1-3)Gal(b1-4)GlcNAc(b1-2)Man
Procedure, shortened: as §1

[7] = biological target: Gal(a1-3)Gal(b1-4)GlcNAc(b1-2)Man(a1-3)[Gal(a1-3)Gal(b1-4)GlcNAc(b1-2)Man(a1-6)]Man(b1-4)GlcNAc(b1-4)GlcNAc
Procedure, shortened: as §1

[8] = biological target: Gal(a1-3)Gal(b1-4)GlcNAc(b1-3)GalNAc
Procedure, shortened: as §1

[9] = biological target: Gal(a1-3)Gal(b1-4)GlcNAc(b1-6)GalNAc
Procedure, shortened: as §1

[10] = biological target: Gal(a1-3)Gal(b1-4)[Fuc(a1-3)]GlcNAc
Procedure, shortened: as §1

[11] = biological target: Gal(a1-3)Gal(b1-4)[Fuc(a1-3)]GlcNAc(b1-2)Man(a1-3)[Gal(a1-3)Gal(b1-4)[Fuc(a1-3)]GlcNAc(b1-2)Man(a1-6)]Man(b1-4)GlcNAc(b1-4)GlcNAc
Procedure, shortened: as §1

Gal(a1-3)GalNAc = biological target: Gal(a1-3)GalNAc
Procedure, shortened: as §1

[12] = biological target: Gal(a1-3)[Gal(a1-4)]Gal(b1-4)GlcNAc
Procedure, shortened: as §1

[13] = biological target: Gal(a1-4)Gal(b1-3)GlcNAc(b1-2)Man(a1-3)[Gal(a1-4)Gal(b1-3)GlcNAc(b1-2)Man(a1-6)]Man(b1-4)GlcNAc(b1-4)GlcNAc
Procedure, shortened: as §1

Gal(a1-4)Gal(b1-4)Glc = biological target: Gal(a1-4)Gal(b1-4)Glc
Procedure, shortened: as §1

Gal(a1-4)Gal(b1-4)GlcNAc = biological target: Gal(a1-4)Gal(b1-4)GlcNAc
Procedure, shortened: as §1

[14] = biological target: Gal(a1-4)Gal(b1-4)GlcNAc(b1-2)Man(a1-3)[Gal(a1-4)Gal(b1-4)GlcNAc(b1-2)Man(a1-6)]Man(b1-4)GlcNAc(b1-4)GlcNAc
Procedure, shortened: as §1

[15] = biological target: Gal(a1-4)Gal(b1-4)GlcNAc(b1-3)Gal(b1-4)Glc
Procedure, shortened: as §1

Gal(a1-4)GlcNAc = biological target: Gal(a1-4)GlcNAc
Procedure, shortened: as §1

Gal(a1-6)Glc = biological target: Gal(a1-6)Glc
Procedure, shortened: as §1

Gal(b1-2)Gal = biological target: Gal(b1-2)Gal
Procedure, shortened: as §1

Gal(b1-3)Gal = biological target: Gal(b1-3)Gal
Procedure, shortened: as §1

Gal(b1-3)Gal(b1-4)GlcNAc = biological target: Gal(b1-3)Gal(b1-4)GlcNAc
Procedure, shortened: as §1

Gal(b1-3)GalNAc = biological target: Gal(b1-3)GalNAc
Procedure, shortened: as §1

[16] = biological target: Gal(b1-3)GalNAc(a1-3)[Fuc(a1-2)]Gal(b1-4)Glc
Procedure, shortened: as §1

[17] = biological target: Gal(b1-3)GalNAc(a1-3)[Fuc(a1-2)]Gal(b1-4)GlcNAc
Procedure, shortened: as §1

Gal(b1-3)GalNAc(b1-3)Gal = biological target: Gal(b1-3)GalNAc(b1-3)Gal
Procedure, shortened: as §1

[18] = biological target: Gal(b1-3)GalNAc(b1-3)Gal(a1-4)Gal(b1-4)Glc
Procedure, shortened: as §1

[19] = biological target: Gal(b1-3)GalNAc(b1-4)Gal(b1-4)Glc
Procedure, shortened: as §1

[20] = biological target: Gal(b1-3)GalNAc(b1-4)[Neu5Ac(a2-3)]Gal(b1-4)Glc
Procedure, shortened: as §1

Gal(b1-3)GlcNAc = biological target: Gal(b1-3)GlcNAc
Procedure, shortened: as §1

[21] = biological target: Gal(b1-3)GlcNAc(a1-3)Gal(b1-4)GlcNAc
Procedure, shortened: as §1

[22] = biological target: Gal(b1-3)GlcNAc(a1-6)Gal(b1-4)GlcNAc
Procedure, shortened: as §1

Gal(b1-3)GlcNAc(b1-2)Man = biological target: Gal(b1-3)GlcNAc(b1-2)Man
Procedure, shortened: as §1

[23] = biological target: Gal(b1-3)GlcNAc(b1-2)Man(a1-3)[Gal(b1-3)GlcNAc(b1-2)Man(a1-6)]Man(b1-4)GlcNAc(b1-4)GlcNAc
Procedure, shortened: as §1

B1: EULS2 M2 (Oryza sativa) (protein)
chain: MVYCRANPNYAMTARNGAVVLAPANPKDEYQHWIKDMRWSTSIKDEEGYPAFALVNKATGQAIKHSLGQSHPVRLVPYNPEVMDESVLWTESRDVGNGFRCIRMVNNIYLNFDAFHGDKYHGGVRDGTDIVLWKLCEGDSQRWKIQPYYILEQKLISEEDLNSAVDHHHHHH
glycan array binding signal (z-score) (Gal(a1-3)Gal(b1-3)GlcNAc): 6.13
glycan array binding signal (z-score) [1]: -0.595
glycan array binding signal (z-score) [2]: -0.109
glycan array binding signal (z-score) [3]: -0.646
glycan array binding signal (z-score) [4]: -0.204
glycan array binding signal (z-score) [5]: 0.228
glycan array binding signal (z-score) (Gal(a1-3)Gal(b1-4)Glc): 0.101
glycan array binding signal (z-score) (Gal(a1-3)Gal(b1-4)GlcNAc): -0.456
glycan array binding signal (z-score) [6]: -0.469
glycan array binding signal (z-score) [7]: 0.58
glycan array binding signal (z-score) [8]: -0.627
glycan array binding signal (z-score) [9]: -0.571
glycan array binding signal (z-score) [10]: -0.444
glycan array binding signal (z-score) [11]: -0.327
glycan array binding signal (z-score) (Gal(a1-3)GalNAc): -0.346
glycan array binding signal (z-score) [12]: -0.638
glycan array binding signal (z-score) [13]: -0.056
glycan array binding signal (z-score) (Gal(a1-4)Gal(b1-4)Glc): -0.552
glycan array binding signal (z-score) (Gal(a1-4)Gal(b1-4)GlcNAc): -0.566
glycan array binding signal (z-score) [14]: 0.344
glycan array binding signal (z-score) [15]: 0.128
glycan array binding signal (z-score) (Gal(a1-4)GlcNAc): -0.332
glycan array binding signal (z-score) (Gal(a1-6)Glc): 0.292
glycan array binding signal (z-score) (Gal(b1-2)Gal): -0.134
glycan array binding signal (z-score) (Gal(b1-3)Gal): -0.312
glycan array binding signal (z-score) (Gal(b1-3)Gal(b1-4)GlcNAc): -0.911
glycan array binding signal (z-score) (Gal(b1-3)GalNAc): -0.041
glycan array binding signal (z-score) [16]: 0.005
glycan array binding signal (z-score) [17]: -0.262
glycan array binding signal (z-score) (Gal(b1-3)GalNAc(b1-3)Gal): -0.267
glycan array binding signal (z-score) [18]: -0.297
glycan array binding signal (z-score) [19]: -0.124
glycan array binding signal (z-score) [20]: -0.353
glycan array binding signal (z-score) (Gal(b1-3)GlcNAc): -0.454
glycan array binding signal (z-score) [21]: -0.333
glycan array binding signal (z-score) [22]: -0.436
glycan array binding signal (z-score) (Gal(b1-3)GlcNAc(b1-2)Man): 0.177
glycan array binding signal (z-score) [23]: 0.061
